{
  "source": "patent US20040259942A1",
  "about": "“Modulation of stat activity” (priority 2001, published 2004)",
  "key": {"STAT1 and STAT3 [1]": {"test_system": "STAT1 and STAT3", "assay_type": "cell-based, human", "protocol": "Extracts were cleared by centrifugation at 16,000×g for 10 minutes, snap-frozen in liquid N2 and stored at −80° C. Nuclear extracts were prepared in high salt hypertonic buffer (20 mM HEPES pH7.9, 420 mM NaCl, 20% glycerol, 1 mM EDTA, 1 mM EGTA, 0.2% NP-40, 20 mM NaF, 1 mM Na3 VO4, 1 mM Na4P2O7, 2 mM Benzamidine, 0.5 mM PMSF, 1 mM DTT and 1 μg/ml each of leupeptin, aprotinin and pepstatin.\nNuclear extracts were prepared as described previously (11) in high salt hypertonic buffer (2 mM HEPES pH7.9, 420 mM NaCl, 20% glycerol, 1 mM EDTA, 1 mM EGTA, 20 mM NaF, 1 mM Na3VO4, 1 mM Na4P2O7, 2 mM Benzamidine, 0.5 mM PMSF, 1 mM DTT and 1 μg/ml each of leupeptin, aprotinin and pepstatin."}, "STAT1 and STAT3 [2]": {"test_system": "STAT1 and STAT3", "settings": "ref (11); cited from earlier work"}, "STAT1 and STAT3 [3]": {"test_system": "STAT1 and STAT3", "assay_type": "cell-based, human", "settings": "for serum induction of STAT1 and STAT3 DNA-binding activity: Figure 11, lower panel; for serum stimulation of DNA binding by STAT1 and STAT3: pretreatment α-amanitin 2.5 hours, Actinomycin D 10 minutes; for levels of STAT1 and STAT3 activation by serum: inhibitors of transcription, FIG. 13 upper panel; for serum induction of STAT1 and 3 complexes: 200 μM pre-treatment 30 min, serum 2 h"}, "STAT1 and STAT3 [4]": {"test_system": "STAT1 and STAT3", "assay": "H2O2 (ROS)-induced STAT DNA binding (EMSA)", "assay_type": "cell-based, human", "settings": "H2O2 increases intracellular ROS"}},
  "note": "Numbered stars: 1 amine (or outer) side, 2 acyl side, 3 side chain; on linkers, the order of the positions; unused ones are H or OH. Bridge positions count the residues as written; N and C are the ends. Square brackets hold non-standard residues; d marks the D form. Peptide text beside a SMILES is read from it. I, II: the chains in the order shown. Actinocin(9to1) = Cc1c2oc3c(C)ccc(C(=O)[*:1])c3nc-2c(C(=O)[*:2])c(N)c1=O; NMeV = CN[C@H](C(=O)O)C(C)C; Sar = CNCC(=O)O",
  "data": [
    {"compound": "N#C/C(=C/c1ccc(O)c(O)c1)C(=O)NCc1ccccc1", "note": "[AG490]", "values": [
      {"measurement": "STAT activation by EGF (DNA-binding)", "setting": "STAT1 and STAT3 [1]; BT20 and MDA-MB-468 cells, 100 μM", "value": "abolished STAT activation by EGF"},
      {"measurement": "STAT3 activation by serum", "setting": "STAT1 and STAT3 [2]", "value": "interferes with STAT3 activation by serum"},
      {"measurement": "serum-dependent activation of STAT3", "setting": "STAT1 and STAT3 [3]; BR293 cells, pre-treatment 100 μM for 30 minutes", "value": "completely blocked STAT3 activation"},
      {"measurement": "serum induction of STAT1 and STAT3 DNA-binding activity", "setting": "STAT1 and STAT3 [3]", "value": "inhibited serum induction of STAT1 and STAT3 DNA-binding activity"},
      {"measurement": "STAT3 activity in cells growing in full medium", "setting": "STAT1 and STAT3 [3]; MDA-MB468 cells", "value": "reduced the elevated, serum-dependent level of STAT3 activity to a constitutive basal level"}
    ]},
    {"compound": "Cc1c2oc3c(C)ccc(C(=O)N[C@@H]4C(=O)N[C@H](C(C)C)C(=O)N5CCC[C@H]5C(=O)N(C)CC(=O)N(C)[C@@H](C(C)C)C(=O)O[C@@H]4C)c3nc-2c(C(=O)N[C@@H]2C(=O)N[C@H](C(C)C)C(=O)N3CCC[C@H]3C(=O)N(C)CC(=O)N(C)[C@@H](C(C)C)C(=O)O[C@@H]2C)c(N)c1=O", "note": "[Actinomycin D] (I: T[dV]P[Sar][NMeV] / II: T[dV]P[Sar][NMeV]; ester I:1-I:C, II:1-II:C; linker I:N-II:N via Actinocin(9to1))", "values": [
      {"measurement": "serum stimulation of DNA binding by STAT1 and STAT3", "setting": "STAT1 and STAT3 [3]; BR293 cells", "value": "blocked the stimulation of DNA binding by STAT1 and STAT3"},
      {"measurement": "levels of STAT1 and STAT3 activation by serum", "setting": "STAT1 and STAT3 [3]", "value": "reduce the levels of STAT1 and STAT3 activation by serum"}
    ]},
    {"compound": "c1ccc2c(c1)[I+]c1ccccc1-2", "note": "[DPI, diphenylene iodonium chloride]", "values": [
      {"measurement": "serum induction of STAT1 and STAT3 DNA-binding activity", "setting": "STAT1 and STAT3 [3]", "value": "inhibited serum induction of STAT1 and STAT3 DNA-binding activity"}
    ]},
    {"compound": "CC(=O)N[C@@H](CS)C(=O)O", "note": "[NAC, N-acetyl cysteine]", "values": [
      {"measurement": "serum induction of STAT1 and STAT3 DNA-binding activity", "setting": "STAT1 and STAT3 [3]", "value": "inhibited serum induction of STAT1 and STAT3 DNA-binding activity"}
    ]},
    {"compound": "CCCC(=O)CC(=O)N[C@H]1CCOC1=O", "note": "[OHHL, N-(3-oxohexanoyl)-L-homoserine lactone]", "values": [
      {"measurement": "activation of STAT3 by EGF in DNA-binding assays", "setting": "STAT1 and STAT3 [1]; MDA-MB-468 cells, 100 μM", "value": "unaffected"},
      {"measurement": "activation of STAT1 and STAT3 DNA binding by H2O2", "setting": "STAT1 and STAT3 [4]", "value": "but not OHHL"},
      {"measurement": "serum induction of STAT1 and 3 complexes", "setting": "STAT1 and STAT3 [3]; BR293 cells", "value": "but not OHHL"},
      {"measurement": "effect on STAT3 DNA binding", "setting": "STAT1 and STAT3 [3]; BR293 nuclear extracts, at 1001M as printed", "value": "only a marginal effect"}
    ]},
    {"compound": "CCCCCCCCCC(=O)CC(=O)N[C@H]1CCOC1=O", "note": "[OdDHL, N-(3-oxo-dodecanoyl)-L-homoserine lactone]", "values": [
      {"measurement": "activation of STAT3 by EGF in DNA-binding assays", "setting": "STAT1 and STAT3 [1]; MDA-MB-468 cells, 100 μM", "value": "enhanced"},
      {"measurement": "activation of STAT1 and STAT3 DNA binding by H2O2", "setting": "STAT1 and STAT3 [4]", "value": "blocks the activation of STAT1 and STAT3 DNA binding by H2O2"},
      {"measurement": "DNA binding by STAT1 and STAT3 at sub-inhibitory concentration", "setting": "STAT1 and STAT3 [3]; BR293 cells, 20 μM", "value": "increase in DNA binding by STAT1 and STAT3"},
      {"measurement": "serum induction of STAT1 and 3 complexes", "setting": "STAT1 and STAT3 [3]; BR293 cells", "value": "prevented serum induction of STAT1 and 3 complexes"},
      {"measurement": "concentration at which DNA binding by STAT3 was inhibited", "setting": "STAT1 and STAT3 [3]; BR293 nuclear extracts, serum stimulation", "value": 50, "unit": "µM"},
      {"measurement": "STAT activation at sub-inhibitory concentration", "setting": "STAT1 and STAT3 [3]; MDA-MB-468 cells, 10 μM OdDHL", "value": "an increase is also observed"},
      {"measurement": "IC50", "setting": "STAT1 and STAT3 [3]; titration, FIG. 12, read-out: IC50 for the inhibition of serum-induced STAT1 and STAT3 DNA-binding activity", "value": "50 to 100", "unit": "µM"}
    ]},
    {"compound": "COc1cc2ncnc(Nc3cccc(Br)c3)c2cc1OC", "note": "[PD 153035]", "values": [
      {"measurement": "induction of SIE-bound STAT complexes by EGF", "setting": "STAT1 and STAT3 [1]; MDA-MB-468 cells, pre-treatment 100 nM for 30 minutes", "value": "abrogated the induction of SIE-bound STAT complexes by EGF"},
      {"measurement": "delayed serum stimulation of STAT3 DNA-binding", "setting": "STAT1 and STAT3 [3]; serum-starved MDA-MB-468 cells pre-treated with inhibitor, FCS, result not shown", "value": "not affected"}
    ]},
    {"compound": "α-amanitin", "values": [
      {"measurement": "serum stimulation of DNA binding by STAT1 and STAT3", "setting": "STAT1 and STAT3 [3]; BR293 cells", "value": "blocked the stimulation of DNA binding by STAT1 and STAT3"},
      {"measurement": "levels of STAT1 and STAT3 activation by serum", "setting": "STAT1 and STAT3 [3]", "value": "reduce the levels of STAT1 and STAT3 activation by serum"}
    ]}
  ]
}
